Where two headings read alike, the source gives them in different places. Values belong to the binder of their own block, whether it stands above or below them.
Key:
[1] = target: T1, mouse PD-1 on doxycycline-induced 32D[pRF770+pRF791] cells (mouse, UniProt Q02242 25-288); assay: cell-based or functional assay
T1 sequence (looked up): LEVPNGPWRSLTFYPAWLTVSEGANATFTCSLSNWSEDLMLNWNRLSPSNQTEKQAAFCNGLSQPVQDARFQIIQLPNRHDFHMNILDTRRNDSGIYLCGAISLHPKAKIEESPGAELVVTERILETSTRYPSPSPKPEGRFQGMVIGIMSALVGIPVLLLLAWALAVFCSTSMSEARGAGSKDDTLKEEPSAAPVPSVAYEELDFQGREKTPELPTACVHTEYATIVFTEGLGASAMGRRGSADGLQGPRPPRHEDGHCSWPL

[2] = target: T2, IL-15 signaling receptor on 32D[pRF770+pRF791] cells (human CD122 plus mouse CD132) (human; mouse, UniProt P14784 27-551; P34902 23-369); assay: cell-based or functional assay
T2 sequence (looked up) 1: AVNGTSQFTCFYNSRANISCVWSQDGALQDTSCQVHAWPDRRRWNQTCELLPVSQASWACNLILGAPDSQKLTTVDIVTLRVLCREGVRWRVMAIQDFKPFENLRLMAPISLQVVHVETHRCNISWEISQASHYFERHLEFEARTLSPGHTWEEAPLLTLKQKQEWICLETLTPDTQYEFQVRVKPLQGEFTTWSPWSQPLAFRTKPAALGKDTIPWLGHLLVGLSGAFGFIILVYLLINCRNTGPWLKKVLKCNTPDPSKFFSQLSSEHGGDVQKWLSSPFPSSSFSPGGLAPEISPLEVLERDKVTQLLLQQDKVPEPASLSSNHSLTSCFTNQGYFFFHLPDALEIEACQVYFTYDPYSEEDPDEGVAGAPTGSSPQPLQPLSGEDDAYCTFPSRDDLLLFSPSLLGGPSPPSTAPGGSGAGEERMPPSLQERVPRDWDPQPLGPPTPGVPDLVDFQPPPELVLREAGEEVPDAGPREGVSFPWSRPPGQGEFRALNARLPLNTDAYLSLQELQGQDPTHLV
T2 sequence (looked up) 2: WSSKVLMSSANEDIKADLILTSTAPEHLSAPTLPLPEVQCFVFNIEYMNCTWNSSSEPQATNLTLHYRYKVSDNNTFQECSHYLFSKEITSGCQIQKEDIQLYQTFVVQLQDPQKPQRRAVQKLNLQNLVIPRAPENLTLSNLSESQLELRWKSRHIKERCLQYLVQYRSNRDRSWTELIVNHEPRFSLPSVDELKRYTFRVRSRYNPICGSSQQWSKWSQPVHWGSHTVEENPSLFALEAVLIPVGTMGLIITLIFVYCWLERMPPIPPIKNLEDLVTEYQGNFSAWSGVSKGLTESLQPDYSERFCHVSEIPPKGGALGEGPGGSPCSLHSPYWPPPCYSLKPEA

[3] = target: T1, mouse PD-1 on doxycycline-induced …; assay: cell-based or functional assay; remark: listed apart in the source
[4] = target: T2, IL-15 signaling receptor on …; assay: cell-based or functional assay; remark: listed apart in the source
human IL-15Rα [5] = target: T3, human IL-15Rα (human, UniProt Q13261 31-205, limits assumed); assay: SPR, steady state
T3 construct: also called hIL-15Rα; IL-15 receptor alpha

human IL-2Rβ = target: T4, human IL-2Rβ (human, UniProt P14784 27-240, limits assumed); assay: SPR, steady state
T4 construct: also called hIL-2Rβ; IL-2 receptor beta
T4 sequence (looked up): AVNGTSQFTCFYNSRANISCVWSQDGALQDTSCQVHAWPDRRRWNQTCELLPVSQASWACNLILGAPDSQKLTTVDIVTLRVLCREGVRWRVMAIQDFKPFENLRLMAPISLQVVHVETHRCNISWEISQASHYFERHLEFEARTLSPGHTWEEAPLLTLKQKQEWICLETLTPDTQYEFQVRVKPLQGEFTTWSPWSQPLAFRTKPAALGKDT

human IL-15Rα [6] = target: T3, human IL-15Rα; assay: SPR, kinetic fit
T3 sequence (Q13261 31-205 limits assumed): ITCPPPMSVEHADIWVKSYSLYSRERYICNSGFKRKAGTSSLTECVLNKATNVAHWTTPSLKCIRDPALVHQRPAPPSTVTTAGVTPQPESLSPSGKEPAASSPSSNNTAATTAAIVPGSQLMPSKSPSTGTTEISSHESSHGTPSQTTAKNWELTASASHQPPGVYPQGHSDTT

Fold change = EC50 (PD-1(low))/EC50 (PD-1+) [1]: 44 fold | pSTAT5 EC50 on PD-1+ 32D reporter cells [1]: 0.42 nM | pSTAT5 EC50 on PD-1(low) 32D reporter cells [2]: 18.8 nM
B1: xmPD1-hIL15Rasu-hIL-15 K11S/D30N (other)
chain 1: [about 120 residues with changes left out here]
chain 2: HHHHHHHHGGGGSGSGGEVQLVESGGGLVKPGGSLELSCAASGFTFSSYWMSWVRQAPEKGLEWVAAISPSGGSTYYADSVKGRFTISRDNAKNTLFLQMTSLRSEDTAMYYCAKESWGAYYDLWGQGTTVTVSSASTKGPSVFPLAPCSRSTSESTAALGCLVKDYFPEPVTVSWNSGALTSGVHTFPAVLQSSGLYSLSSVVTVPSSNFGTQTYTCNVDHKPSNTKVDKTVERKCRVRCPRCPAPPVAGPSVFLFPPKPKDTLMISRTPEVTCVVVAVSHEDPEVQFNWYVDGVEVHNAKTKPREEQFNSTFRVVSVLTVVHQDWLNGKEYKCKVSNKGLPSSIEKTISKTKGQPREPQVYTLPPSREEMTKNQVSLTCLVKGFYPSDIAVEWESNGQPENNYKTTPPMLDSDGSFFLYSRLTVDKSRWQQGNVFSCSVMHEALHNHYTQKSLSLSPGK
chain 3: DIVMTQSPSSLSVSAGDKVTMSCRASQGISSWLAWYQQKPWQPPKLLIYKASTLESGVPDRFTGSGSGTDFTLTISSVQAEDLAVYYCQQSYSTPWTFGGGTKLEIKGTVAAPSVFIFPPSDEQLKSGTASVVCLLNNFYPREAKVQWKVDNALQSGNSQESVTEQDSKDSTYSLSSTLTLSKADYEKHKVYACEVTHQGLSSPVTKSFNRGEC

Fold change = EC50 (PD-1(low))/EC50 (PD-1+) [1]: 18 fold | pSTAT5 EC50 on PD-1+ 32D reporter cells [1]: 0.38 nM | pSTAT5 EC50 on PD-1(low) 32D reporter cells [2]: 6.91 nM
B2: xmPD1-hIL15Rasu-hIL-15 D61N (other)
chain 1: [about 120 residues with changes left out here]
chain 2: B1 chain 2
chain 3: B1 chain 3

Fold change = EC50 (PD-1(low))/EC50 (PD-1+) [1]: 193 fold | pSTAT5 EC50 on PD-1+ 32D reporter cells [1]: 70 pM | pSTAT5 EC50 on PD-1(low) 32D reporter cells [2]: 12.9 nM
B3: xmPD1-hIL15Rasu-hIL-15 D61N/M109A (other)
chain 1: [about 120 residues with changes left out here]
chain 2: B1 chain 2
chain 3: B1 chain 3

Fold change = EC50 (PD-1(low))/EC50 (PD-1+) [3]: 503 fold | pSTAT5 EC50 on PD-1+ 32D reporter cells [3]: 7.9 pM | pSTAT5 EC50 on PD-1(low) 32D reporter cells [4]: 3.98 nM
B4: xmPD1-IL15 V49K E46G (other)
heavy 1: B1 chain 2
heavy 2: EVQLVESGGGLVKPGGSLELSCAASGFTFSSYWMSWVRQAPEKGLEWVAAISPSGGSTYYADSVKGRFTISRDNAKNTLFLQMTSLRSEDTAMYYCAKESWGAYYDLWGQGTTVTVSSASTKGPSVFPLAPCSRSTSESTAALGCLVKDYFPEPVTVSWNSGALTSGVHTFPAVLQSSGLYSLSSVVTVPSSNFGTQTYTCNVDHKPSNTKVDKTVERKCEVECPECPAPPVAGPSVFLFPPKPKDTLMISRTPEVTCVVVAVSHEDPEVQFNWYVDGVEVHNAKTKPREEQFNSTFRVVSVLTVVHQDWLNGKEYKCKVSNKGLPSSIEKTISKTKGQPREPQVYTLPPSREEMTKNQVSLTCEVKGFYPSDIAVEWESNGQPENNYKTTPPMLDSDGSFFLYSKLTVDKSRWQQGNVFSCSVMHEALHNHYTQKSLSLSPGSGGGGGTSATATPGA[about 120 residues with changes left out here]
light: B1 chain 3

Fold change = EC50 (PD-1(low))/EC50 (PD-1+) [3]: 227 fold | pSTAT5 EC50 on PD-1+ 32D reporter cells [3]: 17.5 pM | pSTAT5 EC50 on PD-1(low) 32D reporter cells [4]: 3.98 nM
B5: xmPD1-IL15 V49K Y26K (other)
heavy 1: B1 chain 2
heavy 2: EVQLVESGGGLVKPGGSLELSCAASGFTFSSYWMSWVRQAPEKGLEWVAAISPSGGSTYYADSVKGRFTISRDNAKNTLFLQMTSLRSEDTAMYYCAKESWGAYYDLWGQGTTVTVSSASTKGPSVFPLAPCSRSTSESTAALGCLVKDYFPEPVTVSWNSGALTSGVHTFPAVLQSSGLYSLSSVVTVPSSNFGTQTYTCNVDHKPSNTKVDKTVERKCEVECPECPAPPVAGPSVFLFPPKPKDTLMISRTPEVTCVVVAVSHEDPEVQFNWYVDGVEVHNAKTKPREEQFNSTFRVVSVLTVVHQDWLNGKEYKCKVSNKGLPSSIEKTISKTKGQPREPQVYTLPPSREEMTKNQVSLTCEVKGFYPSDIAVEWESNGQPENNYKTTPPMLDSDGSFFLYSKLTVDKSRWQQGNVFSCSVMHEALHNHYTQKSLSLSPGSGGGGGTSATATPGA[about 120 residues with changes left out here]
light: B1 chain 3

Fold change = EC50 (PD-1(low))/EC50 (PD-1+) [1]: 139 fold | pSTAT5 EC50 on PD-1+ 32D reporter cells [1]: 0.16 nM | pSTAT5 EC50 on PD-1(low) 32D reporter cells [2]: 22 nM
B6: xmPD1-hIL15Rasu-hIL-15 D61N/D30N (other)
chain 1: [about 120 residues with changes left out here]
chain 2: B1 chain 2
chain 3: B1 chain 3

Fold change = EC50 (PD-1(low))/EC50 (PD-1+) [1]: 163 fold | pSTAT5 EC50 on PD-1+ 32D reporter cells [1]: 60 pM | pSTAT5 EC50 on PD-1(low) 32D reporter cells [2]: 10.1 nM
B7: xmPD1-hIL15Rasu-hIL-15 E64Q/M109A (other)
chain 1: [about 120 residues with changes left out here]
chain 2: B1 chain 2
chain 3: B1 chain 3

Fold change = EC50 (PD-1(low))/EC50 (PD-1+) [1]: 19 fold | pSTAT5 EC50 on PD-1+ 32D reporter cells [1]: 0.16 nM | pSTAT5 EC50 on PD-1(low) 32D reporter cells [2]: 3.13 nM
B8: xmPD1-hIL15Rasu-hIL-15 K11S/M109A (other)
chain 1: [about 120 residues with changes left out here]
chain 2: B1 chain 2
chain 3: B1 chain 3

Kd (human IL-15Rα [5]): 96.8 nM | Kd (human IL-2Rβ): 57.9 nM
B10: hIL-15 Y26R (ligand)
chain: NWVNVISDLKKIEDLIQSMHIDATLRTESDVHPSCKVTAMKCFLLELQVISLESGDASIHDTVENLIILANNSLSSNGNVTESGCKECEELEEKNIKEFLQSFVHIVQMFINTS
notes: not shown: C-terminal linker-8xHis-Avi tag

Kd (human IL-15Rα [5]): 146 nM | Kd (human IL-2Rβ): 75.7 nM
B14: hIL-15 Y26K (ligand)
chain: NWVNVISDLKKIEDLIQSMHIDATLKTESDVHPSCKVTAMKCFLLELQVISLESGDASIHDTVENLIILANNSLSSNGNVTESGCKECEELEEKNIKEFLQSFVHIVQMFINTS
notes: as for B10

Continued, binder first:

B9: hIL-15 E46G (ligand)
chain: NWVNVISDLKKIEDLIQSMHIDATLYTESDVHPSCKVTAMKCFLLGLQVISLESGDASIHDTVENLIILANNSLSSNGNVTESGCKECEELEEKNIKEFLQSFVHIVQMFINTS
notes: as for B10
Kd (human IL-15Rα [5]): 267 nM | Kd (human IL-2Rβ): 141 nM

B11: hIL-15 V49H (ligand)
chain: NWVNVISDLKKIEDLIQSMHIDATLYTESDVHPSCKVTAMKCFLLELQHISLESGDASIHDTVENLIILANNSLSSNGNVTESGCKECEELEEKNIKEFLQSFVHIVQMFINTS
notes: as for B10
Kd (human IL-15Rα [5]): 28.5 nM

B12: hIL-15 V49S (ligand)
chain: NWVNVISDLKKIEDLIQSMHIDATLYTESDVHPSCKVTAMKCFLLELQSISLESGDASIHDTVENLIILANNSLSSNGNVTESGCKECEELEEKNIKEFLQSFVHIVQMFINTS
notes: as for B10
Kd (human IL-15Rα [6]): 1.34 nM | koff (human IL-15Rα [6]): 0.00277 s⁻¹ | kon (human IL-15Rα [6]): 2.06e+06 M⁻¹ s⁻¹ | t1/2 (human IL-15Rα [6]): 4.17 min

B13: hIL-15 V49E (ligand)
chain: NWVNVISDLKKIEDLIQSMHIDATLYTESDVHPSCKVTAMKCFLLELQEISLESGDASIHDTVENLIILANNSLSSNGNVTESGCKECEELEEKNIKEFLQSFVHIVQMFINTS
notes: as for B10
Kd (human IL-15Rα [5]): 43.4 nM

B15: hIL-15 Y26H (ligand)
chain: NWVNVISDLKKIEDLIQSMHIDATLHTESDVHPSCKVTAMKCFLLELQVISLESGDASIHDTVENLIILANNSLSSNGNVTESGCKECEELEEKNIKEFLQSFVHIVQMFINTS
notes: as for B10
Kd (human IL-15Rα [5]): 10.9 nM | Kd (human IL-2Rβ): 87 nM

B16: hIL-15 V49N (ligand)
chain: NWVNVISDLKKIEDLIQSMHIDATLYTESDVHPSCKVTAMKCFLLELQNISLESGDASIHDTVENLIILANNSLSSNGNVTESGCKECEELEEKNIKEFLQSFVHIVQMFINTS
notes: as for B10
Kd (human IL-15Rα [6]): 1.86 nM | koff (human IL-15Rα [6]): 0.00385 s⁻¹ | kon (human IL-15Rα [6]): 2.07e+06 M⁻¹ s⁻¹ | t1/2 (human IL-15Rα [6]): 3 min

B17: hIL-15 V49Q (ligand)
chain: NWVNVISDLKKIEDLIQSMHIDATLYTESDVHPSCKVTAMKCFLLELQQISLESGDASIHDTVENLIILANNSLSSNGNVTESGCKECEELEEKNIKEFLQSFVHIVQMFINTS
notes: as for B10
Kd (human IL-15Rα [6]): 8.17 nM | koff (human IL-15Rα [6]): 0.0128 s⁻¹ | kon (human IL-15Rα [6]): 1.56e+06 M⁻¹ s⁻¹ | t1/2 (human IL-15Rα [6]): 0.91 min

B18: hIL-15 V49A (ligand)
chain: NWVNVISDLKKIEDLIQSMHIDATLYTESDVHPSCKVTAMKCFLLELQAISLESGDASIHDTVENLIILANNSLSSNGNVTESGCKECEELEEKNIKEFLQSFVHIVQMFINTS
notes: as for B10
Kd (human IL-15Rα [6]): 0.874 nM | koff (human IL-15Rα [6]): 0.00111 s⁻¹ | kon (human IL-15Rα [6]): 1.27e+06 M⁻¹ s⁻¹ | t1/2 (human IL-15Rα [6]): 10.4 min

B19: hIL-15 V49G (ligand)
chain: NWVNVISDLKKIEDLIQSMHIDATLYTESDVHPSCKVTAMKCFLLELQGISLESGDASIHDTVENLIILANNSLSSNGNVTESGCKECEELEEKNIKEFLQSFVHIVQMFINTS
notes: as for B10
Kd (human IL-15Rα [6]): 4.32 nM | koff (human IL-15Rα [6]): 0.00733 s⁻¹ | kon (human IL-15Rα [6]): 1.69e+06 M⁻¹ s⁻¹ | t1/2 (human IL-15Rα [6]): 1.58 min

B20: hIL-15 V49K (ligand)
chain: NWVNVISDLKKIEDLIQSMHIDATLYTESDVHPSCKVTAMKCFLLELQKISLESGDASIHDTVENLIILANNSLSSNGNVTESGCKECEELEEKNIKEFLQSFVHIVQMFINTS
notes: as for B10
Kd (human IL-15Rα [5]): 241 nM | Kd (human IL-2Rβ): 86.6 nM

— patent publication US20210324028A1 (Pfizer, published 2021)
